Data from publication PMC7733951.
Results are given in words; binding and its absence hold for the method and conditions named. Some binding calls cover weakened binding; strength is not graded here. Tags and fused reporters may be left off the sequences shown.

T1: FtsI (cya^T25-ftsI fusion from pKT25-ftsI) (E. coli) (UniProt P0AD68)
T1 sequence: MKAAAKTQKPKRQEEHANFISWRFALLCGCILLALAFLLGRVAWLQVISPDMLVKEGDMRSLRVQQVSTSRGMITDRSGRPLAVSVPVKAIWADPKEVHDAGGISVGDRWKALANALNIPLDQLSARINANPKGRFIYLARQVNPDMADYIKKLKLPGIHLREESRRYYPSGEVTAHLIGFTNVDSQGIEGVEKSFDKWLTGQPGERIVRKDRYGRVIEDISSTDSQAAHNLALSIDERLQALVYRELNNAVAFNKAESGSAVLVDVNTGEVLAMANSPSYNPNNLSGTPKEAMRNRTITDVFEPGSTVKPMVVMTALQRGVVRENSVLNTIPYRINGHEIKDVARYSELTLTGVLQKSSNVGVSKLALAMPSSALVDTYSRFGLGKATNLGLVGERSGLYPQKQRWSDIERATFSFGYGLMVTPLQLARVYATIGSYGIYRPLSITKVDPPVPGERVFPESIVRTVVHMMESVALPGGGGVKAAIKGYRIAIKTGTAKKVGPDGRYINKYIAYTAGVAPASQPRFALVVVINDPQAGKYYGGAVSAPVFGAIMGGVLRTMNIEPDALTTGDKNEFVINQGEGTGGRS

T2: FtsW (cya^T25-ftsW fusion from pKT25-ftsW) (E. coli) (UniProt P0ABG4)
T2 sequence: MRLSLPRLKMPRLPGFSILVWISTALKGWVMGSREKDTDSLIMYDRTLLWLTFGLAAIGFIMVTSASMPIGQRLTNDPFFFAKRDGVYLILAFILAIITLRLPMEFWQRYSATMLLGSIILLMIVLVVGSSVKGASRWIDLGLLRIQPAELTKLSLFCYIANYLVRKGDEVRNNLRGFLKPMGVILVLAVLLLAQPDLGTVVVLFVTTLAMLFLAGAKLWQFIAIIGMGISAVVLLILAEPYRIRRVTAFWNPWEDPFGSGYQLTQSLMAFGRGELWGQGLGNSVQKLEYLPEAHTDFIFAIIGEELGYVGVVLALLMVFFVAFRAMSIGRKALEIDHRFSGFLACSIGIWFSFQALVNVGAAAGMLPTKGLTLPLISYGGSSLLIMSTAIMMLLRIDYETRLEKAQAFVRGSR


Assays:
[1] = molecular target: T1, FtsI (cya^T25-ftsI fusion from pKT25-ftsI) (E. coli); experiment: two-hybrid; bacterial two-hybrid (BACTH) in E. coli cya strain DHM1; ftsL alleles in pUT18C (T18), ftsW, ftsI or ftsQ in pKT25 (T25); three transformants spotted on LB plates with X-Gal and 0.5 mM IPTG, colour recorded after overnight incubation
[2] = molecular target: T2, FtsW (cya^T25-ftsW fusion from pKT25-ftsW) (E. coli); experiment: as above

Row | binding [1] | binding [2] | Binder
1 | binds | binds | FtsL (cya^T18-ftsL fusion from pUT18C-ftsL) (protein, UniProt P0AEN4 1-121) MISRVTEALSKVKGSMGSHERHALPGVIGDDLLRFGKLPLCLFICIILTAVTVVTTAHHTRLLTAQREQLVLERDALDIEWRNLILEENALGDHSRVERIATEKLQMQHVDPSQENIVVQK
2 | no binding | no binding | FtsL^L24K/I28K (T18 fusion) (protein, UniProt P0AEN4 1-121) MISRVTEALSKVKGSMGSHERHAKPGVKGDDLLRFGKLPLCLFICIILTAVTVVTTAHHTRLLTAQREQLVLERDALDIEWRNLILEENALGDHSRVERIATEKLQMQHVDPSQENIVVQK
3 | binds | binds weakly | FtsL^L24K/I28K/E88K/G92D (T18 fusion) (protein, UniProt P0AEN4 1-121) MISRVTEALSKVKGSMGSHERHAKPGVKGDDLLRFGKLPLCLFICIILTAVTVVTTAHHTRLLTAQREQLVLERDALDIEWRNLILEKNALDDHSRVERIATEKLQMQHVDPSQENIVVQK
4 | binds | binds weakly | FtsL^Δ1-30 carrying the two activation mutations E88K and G92D (T18 fusion) (domain or fragment, UniProt P0AEN4 30-121) DDLLRFGKLPLCLFICIILTAVTVVTTAHHTRLLTAQREQLVLERDALDIEWRNLILEKNALDDHSRVERIATEKLQMQHVDPSQENIVVQK
5 | no binding | no binding | FtsL^Δ1-30 (cya^T18-ftsL^30-121 fusion from pUT18C-ftsL^30-121) (domain or fragment, UniProt P0AEN4 30-121) DDLLRFGKLPLCLFICIILTAVTVVTTAHHTRLLTAQREQLVLERDALDIEWRNLILEENALGDHSRVERIATEKLQMQHVDPSQENIVVQK
6 | no binding | no binding | FtsL^Δ1-30 carrying E88K, G92D and the dominant negative mutation E87K (T18 fusion) (domain or fragment, UniProt P0AEN4 30-121) DDLLRFGKLPLCLFICIILTAVTVVTTAHHTRLLTAQREQLVLERDALDIEWRNLILKKNALDDHSRVERIATEKLQMQHVDPSQENIVVQK
